In PubChem BioAssay AID1347165 (National Center for Advancing Translational Sciences (NCATS), 2019):
The campaign covered roughly 220,000 compounds. About 5,700 (2.6%) were called active. The inconclusive results got no clear call from the source; some entries with a clear call stand among them for comparison. Calls come from the whole dose curve; as a rule, active = well fitted inhibition curve with a large enough effect; inconclusive = small, poorly fitted or top-dose-only effect; inactive = no such curve, though single readings can be large or run the other way. Where the call is inconclusive, the potency comes from a doubtful curve fit.
Note: nearly all actives have a fitted effect of over 70% in size.
Potency is the fitted concentration of half-maximal effect; tags give direction and shape of the fitted curve.
Throughout, for activity change, negative = inhibition: 0% is about no effect.

Each compound was assayed against Lysine-specific demethylase 5B (Homo sapiens) (UniProt Q9UGL1) (assay: Primary screen for KDM5B Histone Demethylases FDH-coupled qHTS). Details: FDH-coupled NADH fluorescence (FDH is formaldehyde dehydrogenase); activity change, negative = inhibition: at 57.7 µM (top of the series) unless noted.
Chain of UniProt Q9UGL1 (Q9UGL1 whole entry, looked up): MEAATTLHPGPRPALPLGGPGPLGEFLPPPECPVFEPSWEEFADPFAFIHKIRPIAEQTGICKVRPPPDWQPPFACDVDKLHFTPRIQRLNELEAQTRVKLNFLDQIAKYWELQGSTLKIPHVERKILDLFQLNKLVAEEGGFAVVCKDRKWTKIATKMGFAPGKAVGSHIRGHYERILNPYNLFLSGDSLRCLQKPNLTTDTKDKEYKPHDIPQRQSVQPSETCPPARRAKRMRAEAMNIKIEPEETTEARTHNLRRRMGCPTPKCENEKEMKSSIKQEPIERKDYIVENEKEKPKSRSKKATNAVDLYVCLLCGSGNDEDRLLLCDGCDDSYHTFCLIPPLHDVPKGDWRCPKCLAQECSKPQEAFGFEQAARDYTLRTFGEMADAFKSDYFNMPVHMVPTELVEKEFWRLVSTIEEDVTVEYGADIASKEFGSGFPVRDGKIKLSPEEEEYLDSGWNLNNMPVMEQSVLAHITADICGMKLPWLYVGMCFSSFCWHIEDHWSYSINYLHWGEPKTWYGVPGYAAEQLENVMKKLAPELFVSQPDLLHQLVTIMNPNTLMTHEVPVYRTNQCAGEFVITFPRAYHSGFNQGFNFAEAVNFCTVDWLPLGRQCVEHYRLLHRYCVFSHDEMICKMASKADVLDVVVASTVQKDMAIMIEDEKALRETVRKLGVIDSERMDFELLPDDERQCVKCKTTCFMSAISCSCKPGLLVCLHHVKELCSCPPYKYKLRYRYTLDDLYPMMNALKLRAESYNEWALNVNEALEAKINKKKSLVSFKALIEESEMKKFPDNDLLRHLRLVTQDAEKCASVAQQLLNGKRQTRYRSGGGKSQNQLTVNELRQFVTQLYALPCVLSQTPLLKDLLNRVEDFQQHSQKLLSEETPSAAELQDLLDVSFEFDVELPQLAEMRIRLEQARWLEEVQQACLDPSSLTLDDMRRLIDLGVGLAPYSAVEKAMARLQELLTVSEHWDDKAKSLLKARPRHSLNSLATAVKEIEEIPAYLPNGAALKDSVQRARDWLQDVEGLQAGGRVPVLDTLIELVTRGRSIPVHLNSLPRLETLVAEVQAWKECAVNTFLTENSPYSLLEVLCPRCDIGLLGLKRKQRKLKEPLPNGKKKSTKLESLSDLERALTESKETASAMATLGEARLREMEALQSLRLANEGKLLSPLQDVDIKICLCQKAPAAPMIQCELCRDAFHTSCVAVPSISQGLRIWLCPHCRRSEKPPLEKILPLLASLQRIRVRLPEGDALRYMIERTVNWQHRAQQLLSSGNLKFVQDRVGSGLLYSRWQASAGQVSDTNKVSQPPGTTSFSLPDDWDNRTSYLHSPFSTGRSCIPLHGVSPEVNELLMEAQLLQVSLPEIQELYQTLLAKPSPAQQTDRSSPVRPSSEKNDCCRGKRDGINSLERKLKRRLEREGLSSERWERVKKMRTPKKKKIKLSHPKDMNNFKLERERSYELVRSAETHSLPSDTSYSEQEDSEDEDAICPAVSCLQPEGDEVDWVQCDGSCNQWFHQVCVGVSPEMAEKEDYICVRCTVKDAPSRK
Outline: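 Compound dilutions met 200 nM (final) KDM5BΔAP for 10 min at room temperature before substrate addition. The substrate mix held 12.5 µM H3K4me3 with cofactors 25 µM α-ketoglutarate and 50 µM Fe²⁺. NADH signal gain over 30 min defined activity.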
`CC(C)c1cc(NCc2cccnc2)n2ncc(-c3ccccc3)c2n1` was tested, and the Potency was inconclusive: 25.1 µM [inhibitor, partial curve, poor fit].
In the case of `Cc1nc(CN2CC3(CCN(C)C3)c3cc(C(=O)NCCc4ccccc4)ccc32)cs1` (stereo not drawn), the Potency is reported as active: 28.2 µM.
With `CC(=O)Nc1ccc(Nc2ccc3cc(S(=O)(=O)N4CCCCC4)ccc3n2)cc1` the Potency was inconclusive: 22.4 µM [inhibitor, partial curve, poor fit].
For `CCOC(=O)Cc1csc(NC(=O)C2CC(=O)N(c3n[nH]c4ccccc34)C2)n1` (stereo not drawn), the Potency was inconclusive: 28.2 µM [inhibitor, single point].
`CC1(CCCCc2ccccc2)COc2ccc(C(=O)NC3CCOCC3)cc2N1` (stereo not drawn) was tested, and the Potency was active: 35.5 µM.
With `CN1[C@@H](CCC(=O)N2CCN(c3ccccn3)CC2)CNC(=O)[C@@H]2[C@H]1CCN2Cc1ncc[nH]1` the Potency was active: 22.4 µM.
`CCCc1ccc(OCC(=O)Nc2sc3c(c2C(=O)OCC)CCC(C(C)(C)C)C3)cc1` (stereo not drawn) was tested, and the activity change, negative = inhibition was inconclusive: -37.9% [inhibitor].
With `CN1CCc2c(C#N)c(NCc3cccnc3)n3cnnc3c2C1` the Potency was inconclusive: 25.1 µM [inhibitor, partial curve, poor fit].
With `NC(=O)[C@@H]1CCCN1CC[C@H]1CN(C(=O)NC2CCCCC2)CC[C@H]1CC(=O)O` the Potency was “inactive”.
With `COCCCNC(=O)c1ccnc(-c2nnc3ccc(N(C)C)nn23)c1` the Potency was inconclusive: 44.7 µM [inhibitor, partial curve, poor fit].
With `CN(C)c1cc(CNC(=O)/C=C/c2ccc(F)cc2)ccn1` the Potency was “inactive”.
For `COc1ccc(-n2ccnc2-c2cc3n(n2)CCCNC3)c(OC)c1`, the Potency was inconclusive: 22.4 µM [inhibitor, partial curve, poor fit].
`COc1ccc(-c2cc3ccc(O)c(CN4CCN(C)CC4)c3oc2=O)cc1OC` was tested, and the Potency was inconclusive: 28.2 µM [inhibitor, partial curve, poor fit].
In the case of `Cc1ccc(CN(C)C2CCc3nn(C)c(=O)n3CC2)o1` (stereo not drawn), the Potency is reported as inconclusive: 22.4 µM [inhibitor, partial curve, poor fit].
In the case of `O=C(c1ccccc1)N1Cc2ccccc2CC2(CCCN2Cc2ccncc2)C1` (stereo not drawn), the Potency is reported as inconclusive: 35.5 µM [inhibitor, partial curve].
In the case of `CCN(c1ccccc1)S(=O)(=O)c1ccc(NC(=O)c2nc(S(C)(=O)=O)ncc2Cl)cc1`, the Potency is reported as inconclusive: 3.98 µM [inhibitor, partial curve, poor fit].
With `Cc1ccc(C2Cn3nnc(C(=O)N4CCC(C(=O)NCCN(C)C)CC4)c3CO2)cc1` (stereo not drawn) the Potency was “inactive”.
`CCc1cn[nH]c1C1CCCN(C(=O)c2cnn(-c3ccccc3OC)c2)C1` (stereo not drawn) was tested, and the Potency was “inactive”.
`CC(C)c1cnc(-c2ccncc2)[nH]1` was tested, and the Potency was inconclusive: 126 µM [inhibitor, partial curve].
`CCC1(C)CC(=O)c2c(ccc3oc(C(=O)Nc4ccc(C(C)=O)cc4)c(C)c23)O1` (stereo not drawn) was tested, and the Potency was inconclusive: 28.2 µM [inhibitor, partial curve, poor fit].
In the case of `CCc1nc2ccc(C(=O)N3CCN(c4cccc(Cl)c4)CC3)cc2nc1CC`, the Potency is reported as inconclusive: 28.2 µM [inhibitor, single point].
In the case of `CC(C)c1ccc(Nc2sc(C(=O)c3ccccc3)c(N)c2S(=O)(=O)c2ccccc2)cc1`, the Potency is reported as inconclusive: 17.8 µM [inhibitor, partial curve, poor fit].
In the case of `FC(F)Oc1cccc(-c2ccnc(=S)[nH]2)c1`, the Potency is reported as inconclusive: 25.1 µM [inhibitor, single point].
For `CN(C)C[C@@H]1CN(C)C[C@H]1NS(=O)(=O)c1ccc(Br)cc1`, the Potency was inconclusive: 12.6 µM [inhibitor, partial curve].
`COc1ccc(CCN(C)C(=O)CC(c2cccc(F)c2)c2cn(C)c3ccccc23)cc1OC` (stereo not drawn) was tested, and the Potency was “inactive”.
For `CC(C)CCNC(=O)CSc1nnc(NC2CCCCC2)s1`, the Potency was “inactive”.
`O=C1Nc2ccc(-c3cccc(C(F)(F)F)c3)cc2C(=O)N2CCN(C(=O)c3cccs3)C[C@H]12` was tested, and the Potency was inconclusive: 31.6 µM [inhibitor, single point].
In the case of `COc1ccc(-n2c(=O)c3c4c(sc3n(Cc3ccccc3C)c2=O)CCCC4)c(OC)c1`, the Potency is reported as inconclusive: 22.4 µM [inhibitor, partial curve, poor fit].
For `CCC(NC(=O)c1cc(OC)ccc1OC1CCN(C(C)=O)CC1)c1ccncc1` (stereo not drawn), the Potency was inconclusive: 35.5 µM [inhibitor, single point].
For `CCc1cccc(NC(=O)C(Cc2ccccc2)NS(=O)(=O)c2cccs2)c1` (stereo not drawn), the activity change, negative = inhibition was inconclusive: -32.9% [inhibitor].
`CCc1cc(=O)oc2cc(OCc3nn[nH]n3)ccc12` was tested, and the Potency was inconclusive: 28.2 µM [inhibitor, partial curve, poor fit].
With `CCc1ccc(C2=NN(CCC(=O)NCCc3ccccc3)C(=O)CC2)cc1` the Potency was inconclusive: 44.7 µM [inhibitor, single point].
For `O/N=C1\CCCc2c1nc(-c1ccco1)n2O`, the Potency was inconclusive: 28.2 µM [inhibitor, single point].
For `COc1cccc(C(=O)N2CC(Oc3ccccc3-c3nc(C4CC4)no3)C2)c1`, the Potency was inconclusive: 35.5 µM [inhibitor, single point].
`FC(F)(F)c1cnc(Sc2nnc(C3CC3)n2C2CC2)c(Cl)c1` was tested, and the Potency was “inactive”.
In the case of `FC(F)(F)c1ccc2nc([C@H]3CCN(C4CCCCC4)C3)[nH]c2c1`, the Potency is reported as inconclusive: 25.1 µM [inhibitor, single point].
In the case of `O=C(O)CCCC(=O)N1N=C(c2ccsc2)CC1c1ccc(F)cc1` (stereo not drawn), the Potency is reported as inconclusive: 35.5 µM [inhibitor, single point].
`c1cncc(-c2nc(-c3ccc(OC4CNC4)cc3)no2)c1` was tested, and the Potency was inconclusive: 10 µM [inhibitor, partial curve].
With `CCn1nccc1C(=O)N1CCc2nc3cc(-c4ccccc4Cl)[nH]n3c(=O)c2C1` the Potency was inconclusive: 15.8 µM [inhibitor, partial curve, poor fit].
In the case of `O=C(Cc1cccc(F)c1)N1CCC2(CC1)NCCc1c2[nH]c2ccccc12`, the Potency is reported as inconclusive: 22.4 µM [inhibitor, partial curve, poor fit].
For `CC(=O)Nc1ccc(/C(C)=N\OCC(=O)NC(C)c2ccccc2)cc1` (stereo not drawn), the Potency was “inactive”.
In the case of `COc1ccc(CN2CCN(c3ccnc(C)n3)CC2CCO)c(C)c1C` (stereo not drawn), the Potency is reported as inconclusive: 8.91 µM [inhibitor, partial curve, poor fit].
`O=C(c1ccccn1)N1CC(CO)C2(CCNCC2)C1` (stereo not drawn) was tested, and the Potency was “inactive”.
With `O=C(C1CCCN(S(=O)(=O)c2cccc3nonc23)C1)N1CCN(c2cccc(C(F)(F)F)c2)CC1` (stereo not drawn) the activity change, negative = inhibition was inconclusive: -30.3% [inhibitor].
With `Cc1ccc(CNS(=O)(=O)c2ccc3c(c2)CN(C(=O)c2cccnc2)CC3)o1` the Potency was inconclusive: 7.94 µM [inhibitor, partial curve].
`Cn1cncc1C(=O)NC1CCN(c2ccc(=O)n(C)n2)CC1` was tested, and the Potency was inconclusive: 35.5 µM [inhibitor, partial curve, poor fit].
In the case of `CCN1c2cc(C(=O)Nc3ccc(OC)cc3OC)ccc2C(=O)N2CCCC21` (stereo not drawn), the Potency is reported as inconclusive: 20 µM [inhibitor, partial curve, poor fit].
`COCc1cnc2c(c1SCC(=O)Nc1ccccc1F)c(=O)n(C)c(=O)n2C` was tested, and the Potency was “inactive”.
`COc1ccc(-c2noc(-c3cc4ccc(OC(C)=O)cc4oc3=O)n2)cc1` was tested, and the Potency was inconclusive: 31.6 µM [inhibitor, single point].
`COC(=O)CC(NC(=O)c1ccc2c(c1)OCCCO2)c1ccc(F)cc1` (stereo not drawn) was tested, and the Potency was “inactive”.
In the case of `Cc1ccc2[nH]c(C(=O)NCCOc3ccccc3)cc2c1`, the Potency is reported as inconclusive: 31.6 µM [inhibitor, single point].
With `CCC(C)NC(=O)N1CCC(Cc2nc(-c3ccncc3)n[nH]2)CC1` (stereo not drawn) the Potency was inconclusive: 22.4 µM [inhibitor, partial curve, poor fit].
With `COc1ccccc1C(=O)Nc1ccnn1C1CCN(c2nccc(N)n2)CC1` the Potency was inconclusive: 44.7 µM [inhibitor, partial curve, poor fit].
With `Cc1ccc2[nH]c(=O)c3cc(C(=O)NCc4cccc(Cl)c4)sc3c2c1` the Potency was inconclusive: 11.2 µM [inhibitor, partial curve, poor fit].
In the case of `Nc1nc2c(s1)C(c1ccc(Br)cc1)CC(=O)N2` (stereo not drawn), the Potency is reported as inconclusive: 7.08 µM [inhibitor, full curve, poor fit].
In the case of `COC(=O)c1ccc([C@H]2Nc3ccc(S(=O)(=O)Nc4ccc(F)cc4)cc3[C@H]3C=CC[C@H]32)cc1`, the Potency is reported as inconclusive: 6.31 µM [inhibitor, partial curve, poor fit].
With `Cc1ccc(S(=O)(=O)N2CCCc3cc(NS(=O)(=O)c4ccccc4)ccc32)cc1` the Potency was inconclusive: 8.91 µM [inhibitor, partial curve, poor fit].
In the case of `Cc1ccc2c(c1)C(CS(=O)(=O)NCC(C)C)NC2` (stereo not drawn), the Potency is reported as inconclusive: 10 µM [inhibitor, partial curve, poor fit].
In the case of `COC(=O)c1cc(S(=O)(=O)N(C)CC(=O)N2CCN(c3ccccc3F)CC2)cn1C`, the Potency is reported as “inactive”.
In the case of `OC1CCN(Cc2cccc3ccccc23)CC1`, the Potency is reported as inconclusive: 3.16 µM [inhibitor, full curve, poor fit].
`Cc1ccc(/C=[N+](\[O-])c2ccccc2C)cc1` was tested, and the Potency was inconclusive: 20 µM [inhibitor, single point].
With `Cc1ccc(NC(=O)CNCc2ccccc2Cl)cc1S(=O)(=O)N(C)C` the Potency was inconclusive: 3.55 µM [inhibitor, full curve, poor fit].
With `CCCNC(=O)NC[C@@H]1C=C(C)[C@H](Cc2nc3ccc(OC)cc3[nH]2)C[C@H]1C(C)C` the Potency was inconclusive: 31.6 µM [inhibitor, single point].
